From PubChem BioAssay AID504466 (National Center for Advancing Translational Sciences (NCATS), 2011)
Screen size: about 330,000 compounds; about 4,200 (1.3%) were called active. Inconclusive results, whose numbers are uncertain, are shown with a selection of clear calls. Calls follow the shape of the dose curve; as a rule, active = well fitted activation curve with a large enough effect; inconclusive = small, poorly fitted or top-dose-only effect; inactive = no such curve, though single readings can be large or run the other way. A potency beside an inconclusive call is a rough fit, not a confirmed value.

experiment: qHTS screen for small molecules that induce genotoxicity in human embryonic kidney (HEK293T) cells expressing luciferase-tagged ELG1; conditions: HEK293T ELG1-luciferase reporter, luminescence, 16 h; series mostly up to 46 µM; activity change, positive = activation: at the top concentration; also: nearly all actives have a fitted effect of over 60% in size; as to activity change, positive = activation: % of control where 0% means no effect
Outline: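 Cells (2,000/well) expressing the ELG1-luciferase fusion are dosed by pin tool and kept 16 hr at 37 °C, 5% CO2. Signal comes from ONE-Glo luciferase reagent after 30 min at room temperature.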
Potency is read from the fitted curve at half-maximal effect; tags tell the direction and shape of the fitted curve.

Structure (SMILES)	Potency	activity change, positive = activation
CC(=O)c1ccc(NC(=O)[C@@H]2CCCN2C(=O)OC(C)(C)C)cc1	inconclusive: 23.1 µM [activator, partial curve, poor fit]	
N#Cc1c(-c2cccnc2)cc(-c2ccccc2)nc1N	inconclusive: 20.6 µM [activator, single point]	
Cc1ccc(S(=O)(=O)N2CCCCC2)cc1NC(=O)c1ccncc1		inactive: -0.208%
COc1cccc(C(=O)NCCS(=O)(=O)NC(C)CCc2ccccc2)c1 (configuration not stated)		inactive: -6.62%
O=C(c1ccc(-c2nnc(-c3ccccc3)o2)cc1)N1CCCCCC1	inconclusive: 9.2 µM [activator, partial curve, poor fit]	
Cc1cc(=O)[nH]c(S/C=C/c2ccccc2)n1	active: 20.6 µM	
CC(C)(C)N=C1NN=C(c2cc3ccccc3o2)CS1	inconclusive: 2.31 µM [activator, partial curve]	
CCOC(=O)c1c(C)oc2c1c(C(c1cccnc1)N1CCOCC1)c(O)c1ccccc12 (configuration not stated)	inconclusive: 29.1 µM [activator, single point]	
O=C(CSc1nnc2ccccn12)Nc1cccc(-c2nc3ccccc3s2)c1	inconclusive: 14.6 µM [activator, partial curve]	
CN(C)/C=C/C(=O)c1cnc(-c2cccc(Cl)c2)s1	inconclusive: 14.6 µM [activator, partial curve]	
Cc1ccc(CNc2ccc3c(c2)nc(C)n3C)cc1	active: 2.06 µM	
COc1ccc(OC(C)C(=O)NC(C)c2ccccc2)cc1 (configuration not stated)		inactive: 0.0711%
Cc1ccc(C(=O)N2CCN(c3ccc([N+](=O)[O-])cc3)CC2)o1		inactive: -7.98%
CCOC(=O)c1sc(-c2ccccc2)cc1NC(=O)Nc1ccc([N+](=O)[O-])cc1	inconclusive: 32.6 µM [activator, partial curve, poor fit]	
CC(=O)N1CCN(c2ccc(NC(=O)c3ccc4c(c3)OCCO4)cc2Cl)CC1		inactive: -6.76%
Nc1c(N(CCC2=CCCCC2)C(=O)c2ccc([N+](=O)[O-])o2)c(=O)[nH]c(=O)n1Cc1ccccc1		inactive: -20.7%
Cc1c(C(=O)OCC(=O)N(C)c2ccccc2)oc2ccccc12	inconclusive: 16.4 µM [activator, partial curve, poor fit]	
Cc1ccc(-c2cc(C(=O)NCc3ccccn3)no2)cc1	active: 13 µM	
O=C(Nc1ccccn1)c1ccc2c(=O)n3c(nc2c1)CCCCC3	inconclusive: 1.83 µM [activator, partial curve]	
COc1cccc(NC(=O)C2COc3ccccc3O2)c1 (configuration not stated)	inconclusive: 11.6 µM [activator, partial curve, poor fit]	
C=CCn1cc(/C=C2/NC(=O)NC2=O)c2ccccc21	inconclusive: 18.3 µM [activator, single point]	
Cc1cc(-c2nc(-c3ccc(C(C)(C)C)cc3)no2)no1	inconclusive: 5.8 µM [activator, full curve, poor fit]	
COc1ccc(CSc2n[nH]c(C)n2)cc1Br	inconclusive: 14.6 µM [activator, partial curve, poor fit]	
Cc1[nH]c2ccc(C(=O)NCCCN3CCCCC3)cc2c1C		inactive: 7.23%

Structure (SMILES)	Potency	activity change, positive = activation
Cc1ccsc1C(=O)Nc1ccc2c(c1)OCCO2	active: 2.06 µM	
COc1cccc(-c2nc(-c3ccc(Br)o3)no2)c1	inconclusive: 2.59 µM [activator, partial curve]	
COc1ccc(-c2c(=O)n(OCc3nc4ccccc4[nH]3)c3ccccc3[n+]2[O-])cc1		inactive: 0.494%
CC(C)c1nc(SCC(=O)Nc2cccc3ccccc23)n[nH]1		inactive: -1.27%
O=C(CNC(=O)c1ccccc1)OCc1nc2ccccc2s1	inconclusive: 23.1 µM [activator, single point]	
Cc1ccc(S(=O)(=O)N2CCN(C(=O)COC(=O)CC(C)c3ccccc3)CC2)c(C)c1 (configuration not stated)		inactive: -0.299%
Cc1cccc(C(=O)N[C@H](C(=O)OCC(=O)NC2CCS(=O)(=O)C2)C(C)C)c1 (some centres not stated)		inactive: 0.622%
OC(CN1C2=NCCN2c2ccccc21)c1ccc2c(c1)OCO2 (configuration not stated)	inconclusive: 29.1 µM [activator, single point]	
O=C(NCc1cccs1)c1cc(-c2cccc(Cl)c2)on1	inconclusive: 18.4 µM [activator, partial curve, poor fit]	
O=C(NCCSc1ccccc1)c1ccc(Br)cc1	active: 3.26 µM	
Cc1cccc(NC(=O)CNC(=O)CN2C(=O)NC3(CCc4ccccc43)C2=O)c1C (configuration not stated)		inactive: 0.597%
COc1cccc(-c2cc(C(=O)NCC3CCCO3)on2)c1 (configuration not stated)	inconclusive: 23.1 µM [activator, partial curve, poor fit]	
Nn1c(SCc2ccccc2)nc2ccccc21	inconclusive: 1.64 µM [activator, partial curve, poor fit]	
CC(C)c1ccc(NC(=O)[C@@H]2CCC(=O)N2C2OC(=O)c3ccccc32)cc1 (some centres not stated)	inconclusive: 23.1 µM [activator, single point]	
O=C(/C=C/c1ccccc1Cl)NCc1ccccc1		inactive: 14%
Cc1cc(Nc2ccccc2)nn1C(=O)c1ccc(Cl)cc1	inconclusive: 25.9 µM [activator, single point]	
O=C(COc1ccc2c3c(c(=O)oc2c1)CCCC3)NCc1ccccn1		inactive: 5.21%
OCC#CCSc1nnc(-c2ccccc2Br)o1	inconclusive: 23.1 µM [activator, partial curve]	
Cc1ccc(N2C(=O)CS/C2=C(\C(Cl)=C(Cl)Cl)[N+](=O)[O-])cc1	inconclusive: 29.1 µM [activator, partial curve, poor fit]	
Cc1[nH]c2ccccc2c1/C=C/c1nc2ccccc2c(=O)[nH]1	active: 7.3 µM	
COc1ccc(-c2csc(N)n2)cc1F	inconclusive: 20.6 µM [activator, single point]	
CCc1noc(C)c1C(=O)Oc1ccc(N(C)S(=O)(=O)c2ccc(C)c(C)c2)cc1	inconclusive: 23.1 µM [activator, single point]	
Cc1cc(NC(=O)c2cc(-c3ccc(O)cc3)on2)no1	inconclusive: 16.4 µM [activator, partial curve, poor fit]	
CC(C)COc1ccc(/C(=N/O)c2ccccc2)cc1	inconclusive: 14.6 µM [activator, partial curve, poor fit]	

Structure (SMILES)	Potency	activity change, positive = activation
COc1ccc(C(=O)NCCNc2nc3ccc(C)cc3cc2C#N)cc1	inconclusive: 7.94 µM [activator, single point]	
Clc1cccc(CN2COc3c(cc(Cl)c4cccnc34)C2)c1	inconclusive: 20.6 µM [activator, single point]	
COc1ccc(NC(=O)CN(C)C(=O)CCC(=O)c2ccc(C)cc2)cc1	inconclusive: 2.31 µM [activator, partial curve, poor fit]	
Cn1cc(CNC(=O)Nc2ccc3c(c2)OCO3)cn1	inconclusive: 20.6 µM [activator, partial curve, poor fit]	
Cc1ccc(S(=O)(=O)CC(=O)Nc2ncc([N+](=O)[O-])s2)cc1		inactive: -9.81%
CCN(CC(=O)Nc1ccc(NC(C)=O)cc1)C(=O)CSCc1c(C)noc1C		inactive: 2.52%
NC(=O)c1cc(C(=O)Cc2ccc(Cl)cc2)c[nH]1		inactive: 15.4%
O=C1OC(c2ccccc2)=NC12CC2c1ccc(Cl)cc1 (configuration not stated)	inconclusive: 29.1 µM [activator, partial curve, poor fit]	
COC(=O)[C@@H](Cc1c[nH]c2ccccc12)NC(=O)c1ccc2c(c1)OCO2	inconclusive: 14.6 µM [activator, partial curve]	
C=CCNC(=O)N1CCCC(C(=O)c2cccc(OC(C)C)c2)C1 (configuration not stated)	inconclusive: 18.3 µM [activator, partial curve]	
COc1ccc(-n2ncc3c(NCCCN4CCOCC4)ncnc32)cc1	active: 9.2 µM	
Cc1ccc(C(c2nnnn2C(C)(C)C)N2CCN(C3CCCC3)CC2)cc1 (configuration not stated)	inconclusive: 23.1 µM [activator, partial curve, poor fit]	
Cc1c(C(=O)NCc2ccccn2)sc2nc(-c3ccccc3)cn12	inconclusive: 5.8 µM [activator, partial curve]	
COc1ccc(C(=O)Nn2c(SCC(=O)NCC3CCCO3)nc3ccccc3c2=O)cc1 (configuration not stated)	inconclusive: 0.0731 µM [activator, full curve]	
Cc1cc(NC(=O)CCSc2ccccc2)ccc1Br	inconclusive: 16.4 µM [activator, partial curve, poor fit]	
N#CC1=C(N)NC(SCC(=O)c2ccc(Br)cc2)=C(C#N)C12CCCCC2		inactive: -10%
CN(CC(=O)NCCc1ccccc1)Cc1ccco1	active: 20.6 µM	
COc1cccc(NC(=O)CCC(=O)NCc2ccco2)c1		inactive: 12.4%
C/C(=N\Nc1nc(-c2ccc(C)cc2)nc2ccccc12)c1ccc([N+](=O)[O-])cc1		inactive: -1.94%
O=C(CC1C(=O)NCCN1CC1CCCCC1)NCc1ccc(F)cc1F (configuration not stated)	inconclusive: 18.3 µM [activator, partial curve]	
CC(C)(C)c1ccc(C(=O)Nc2ccc(Cl)cc2)cc1	inconclusive: 3.26 µM [activator, full curve, poor fit]	
Cc1ccc(C(=O)Nc2ccc(N3CCCC3)cc2)cc1	inconclusive: 3.55 µM [activator, full curve, poor fit]	
O=C(O)c1ccc(-c2ccc(OS(=O)(=O)c3ccccc3F)cc2)cc1	inconclusive: 18.3 µM [activator, partial curve]	
Cc1ccc(C(=O)NCC(=O)Nc2ccc3c(c2)CCC3)cc1	inconclusive: 32.6 µM [activator, partial curve, poor fit]	
